B1: AAUUCUA (DNA:RNA)
RNA: GGGAGACCGGAAUUCAGAUUGUCCAAUUCUAUUAAAUCCCGUCGUAGCCACCA
DNA 1: CAATCTGAATTCCGGTCTCCC
DNA 2: TGGTGGCTACGACGGGATT
B2: UUUCCUG (DNA:RNA)
RNA: B1 RNA with A25U, A26U, U28C, A31G
DNA 1: CAATCTGAATTCCGGTCTCCC
DNA 2: TGGTGGCTACGACGGGATT
B3: GAACCAA (DNA:RNA)
RNA: B1 RNA with A25G, U27A, U28C, U30A
DNA 1: CAATCTGAATTCCGGTCTCCC
DNA 2: TGGTGGCTACGACGGGATT
B4: GUCUAUA (DNA:RNA)
RNA: B1 RNA with A25G, A26U, U27C, C29A
DNA 1: CAATCTGAATTCCGGTCTCCC
DNA 2: TGGTGGCTACGACGGGATT
B5: GAGUAUA (DNA:RNA)
RNA: B1 RNA with A25G, U27G, C29A
DNA 1: CAATCTGAATTCCGGTCTCCC
DNA 2: TGGTGGCTACGACGGGATT
B6: AUUAGGC (DNA:RNA)
RNA: B1 RNA with A26U, U28A, C29G, U30G, A31C
DNA 1: CAATCTGAATTCCGGTCTCCC
DNA 2: TGGTGGCTACGACGGGATT
B7: CCAUUUA (DNA:RNA)
RNA: B1 RNA with A25C, A26C, U27A, C29U
DNA 1: CAATCTGAATTCCGGTCTCCC
DNA 2: TGGTGGCTACGACGGGATT
B8: CCGAACU (DNA:RNA)
RNA: GGGAGACCGGAAUUCAGAUUGUCCCCGAACUUUAAAUCCCGUCGUAGCCACCA
DNA 1: CAATCTGAATTCCGGTCTCCC
DNA 2: TGGTGGCTACGACGGGATT
B9: GCCCCCU (DNA:RNA)
RNA: B8 RNA with C25G, G27C, A28C, A29C
DNA 1: CAATCTGAATTCCGGTCTCCC
DNA 2: TGGTGGCTACGACGGGATT
B10: CAUUUUA (DNA:RNA)
RNA: B1 RNA with A25C, C29U
DNA 1: CAATCTGAATTCCGGTCTCCC
DNA 2: TGGTGGCTACGACGGGATT
B11: UCCAACG (DNA:RNA)
RNA: B8 RNA with C25U, G27C, U31G
DNA 1: CAATCTGAATTCCGGTCTCCC
DNA 2: TGGTGGCTACGACGGGATT
B12: AACACGU (DNA:RNA)
RNA: B1 RNA with U27C, U28A, U30G, A31U
DNA 1: CAATCTGAATTCCGGTCTCCC
DNA 2: TGGTGGCTACGACGGGATT
B13: GGUGUUC (DNA:RNA)
RNA: B1 RNA with A25G, A26G, U28G, C29U, A31C
DNA 1: CAATCTGAATTCCGGTCTCCC
DNA 2: TGGTGGCTACGACGGGATT
B14: AUAGCCG (DNA:RNA)
RNA: B1 RNA with A26U, U27A, U28G, U30C, A31G
DNA 1: CAATCTGAATTCCGGTCTCCC
DNA 2: TGGTGGCTACGACGGGATT
B15: CCCUGGG (DNA:RNA)
RNA: B8 RNA with G27C, A28U, A29G, C30G, U31G
DNA 1: CAATCTGAATTCCGGTCTCCC
DNA 2: TGGTGGCTACGACGGGATT
B16: GAGCGGU (DNA:RNA)
RNA: B8 RNA with C25G, C26A, A28C, A29G, C30G
DNA 1: CAATCTGAATTCCGGTCTCCC
DNA 2: TGGTGGCTACGACGGGATT
B17: UUGGCAU (DNA:RNA)
RNA: B8 RNA with C25U, C26U, A28G, A29C, C30A
DNA 1: CAATCTGAATTCCGGTCTCCC
DNA 2: TGGTGGCTACGACGGGATT
B18: GUUCGAG (DNA:RNA)
RNA: B1 RNA with A25G, A26U, U28C, C29G, U30A, A31G
DNA 1: CAATCTGAATTCCGGTCTCCC
DNA 2: TGGTGGCTACGACGGGATT
B19: ACGAUAA (DNA:RNA)
RNA: B8 RNA with C25A, A29U, C30A, U31A
DNA 1: CAATCTGAATTCCGGTCTCCC
DNA 2: TGGTGGCTACGACGGGATT
B20: CGCGAUU (DNA:RNA)
RNA: B8 RNA with C26G, G27C, A28G, C30U
DNA 1: CAATCTGAATTCCGGTCTCCC
DNA 2: TGGTGGCTACGACGGGATT
B21: CGGUCGG (DNA:RNA)
RNA: B1 RNA with A25C, A26G, U27G, U30G, A31G
DNA 1: CAATCTGAATTCCGGTCTCCC
DNA 2: TGGTGGCTACGACGGGATT
B22: AAAAUUC (DNA:RNA)
RNA: B1 RNA with U27A, U28A, C29U, A31C
DNA 1: CAATCTGAATTCCGGTCTCCC
DNA 2: TGGTGGCTACGACGGGATT
B23: GCACCGU (DNA:RNA)
RNA: B8 RNA with C25G, G27A, A28C, A29C, C30G
DNA 1: CAATCTGAATTCCGGTCTCCC
DNA 2: TGGTGGCTACGACGGGATT
B24: GUGUGUA (DNA:RNA)
RNA: B1 RNA with A25G, A26U, U27G, C29G
DNA 1: CAATCTGAATTCCGGTCTCCC
DNA 2: TGGTGGCTACGACGGGATT
B25: UUGUGAU (DNA:RNA)
RNA: B8 RNA with C25U, C26U, A28U, A29G, C30A
DNA 1: CAATCTGAATTCCGGTCTCCC
DNA 2: TGGTGGCTACGACGGGATT
B26: CUGCGAU (DNA:RNA)
RNA: B8 RNA with C26U, A28C, A29G, C30A
DNA 1: CAATCTGAATTCCGGTCTCCC
DNA 2: TGGTGGCTACGACGGGATT
B27: GGGUACC (DNA:RNA)
RNA: B8 RNA with C25G, C26G, A28U, U31C
DNA 1: CAATCTGAATTCCGGTCTCCC
DNA 2: TGGTGGCTACGACGGGATT
B28: AUCAGAC (DNA:RNA)
RNA: B1 RNA with A26U, U27C, U28A, C29G, U30A, A31C
DNA 1: CAATCTGAATTCCGGTCTCCC
DNA 2: TGGTGGCTACGACGGGATT
B29: UACGCAG (DNA:RNA)
RNA: B1 RNA with A25U, U27C, U28G, U30A, A31G
DNA 1: CAATCTGAATTCCGGTCTCCC
DNA 2: TGGTGGCTACGACGGGATT
B30: UCUUGAG (DNA:RNA)
RNA: B1 RNA with A25U, A26C, C29G, U30A, A31G
DNA 1: CAATCTGAATTCCGGTCTCCC
DNA 2: TGGTGGCTACGACGGGATT
B31: GUACAAG (DNA:RNA)
RNA: B8 RNA with C25G, C26U, G27A, A28C, C30A, U31G
DNA 1: CAATCTGAATTCCGGTCTCCC
DNA 2: TGGTGGCTACGACGGGATT

Numbering of substitutions follows the chain as printed; changes in the protein carry UniProt numbers. This is one part of the list.

The target of this experiment is T1, RBFOX1 RRM (Homo sapiens, UniProt Q9NWB1 109-208).
T1 sequence: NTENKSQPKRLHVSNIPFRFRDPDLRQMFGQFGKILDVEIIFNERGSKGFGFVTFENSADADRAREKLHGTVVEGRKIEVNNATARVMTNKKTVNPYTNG
Description: EMSA; HiTS-Eq, 1 nM pool, 10 min; buffer printed only for the single-RNA assays: 10 mM Tris pH 7.5, 150 mM NaCl, 3.4 mM EDTA, 0.001% NP-40, 30 C. As to conditions: tags: His6 N-terminal (pET28a); label: 5' 32P. In outline: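 These values rest on relative association constants, computed from read-count changes of each RNA species versus the control reaction and normalised to the cognate motif. Reads came from free RNA recovered by 8% native PAGE after purified RbFox RRM (wild type or mutant) at increasing concentrations was equilibrated for 10 min in 50 µL with 1 nM of a 5′-radiolabelled pool with 7 randomized nucleotides and DNA-annealed flanks.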
As to B1, the binding signal was 0.00109 KA relative to UGCAUGU. As to B2, the binding signal is 0.0199 KA relative to UGCAUGU. Turning to B3, the binding signal is 0.000733 KA relative to UGCAUGU. For the molecule B4, the binding signal is 0.00523 KA relative to UGCAUGU.

In the case of B5, the binding signal was 0.00438 KA relative to UGCAUGU. As for B6, the binding signal is 0.00812 KA relative to UGCAUGU.

With B7, the binding signal was 0.00484 KA relative to UGCAUGU. As to B8, the binding signal was 0.00564 KA relative to UGCAUGU. B9: the binding signal was 0.00688 KA relative to UGCAUGU.

In the case of B10, the binding signal was 0.00214 KA relative to UGCAUGU. For the molecule B11, the binding signal was 0.00691 KA relative to UGCAUGU. With B12, the binding signal was 0.00299 KA relative to UGCAUGU. B13: the binding signal is 0.0173 KA relative to UGCAUGU.

In the case of B14, the binding signal was 0.00214 KA relative to UGCAUGU. Regarding B15, the binding signal is 0.00714 KA relative to UGCAUGU.

For the molecule B16, the binding signal was 0.0181 KA relative to UGCAUGU. For B17, the binding signal is 0.0206 KA relative to UGCAUGU. Take B18: the binding signal was 0.0205 KA relative to UGCAUGU.

B19: the binding signal was 0.00231 KA relative to UGCAUGU. With B20, the binding signal is 0.0158 KA relative to UGCAUGU. Turning to B21, the binding signal is 0.0152 KA relative to UGCAUGU. As to B22, the binding signal is 0.00257 KA relative to UGCAUGU.

B23: the binding signal was 0.0125 KA relative to UGCAUGU. On to B24, for which the binding signal was 0.0163 KA relative to UGCAUGU.

In the case of B25, the binding signal is 0.015 KA relative to UGCAUGU. Consider B26, for which the binding signal is 0.015 KA relative to UGCAUGU.

On to B27, for which the binding signal was 0.00807 KA relative to UGCAUGU.

For the molecule B28, the binding signal was 0.00347 KA relative to UGCAUGU. For the molecule B29, the binding signal was 0.0117 KA relative to UGCAUGU. Regarding B30, the binding signal is 0.0207 KA relative to UGCAUGU. On to B31, for which the binding signal is 0.0094 KA relative to UGCAUGU.

Source of the values: article PMC9911399, “Two distinct binding modes provide the RNA-binding protein RbFox with extraordinary sequence specificity”.
